Data reported in PubChem BioAssay AID624417 (National Center for Advancing Translational Sciences (NCATS), 2012).
About 6,400 (1.6%) of roughly 410,000 compounds were called active. The inconclusive results got no clear call from the source; some entries with a clear call stand among them for comparison. The call rests on the fitted dose curve; in most records, active means well fitted inhibition curve with a large enough effect; inconclusive means small, poorly fitted or top-dose-only effect; inactive means no such curve, though single readings can be large or run the other way. Potencies of inconclusive entries are left out as doubtful fits.

The molecules below were run against Glucagon-like peptide 1 receptor (Homo sapiens) (UniProt P43220) (assay: qHTS of GLP-1 Receptor Inverse Agonists (Inhibition Mode)). Conditions: HEK293 GLP-1R CRE-luciferase, luminescence, 24 h, GLP-1R form is constitutively active; activity change, negative = inhibition: at 38.3 µM (top of the series) unless noted.
Outline: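 Cells are plated, allowed 12 hours at 37 deg C, then treated with compounds for 24 hr before luciferase detection reagent is added and luminescence is read after 12 min at room temperature. The HEK293 line carries constitutively active GLP-1R with a cAMP-responsive reporter.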
Further: nearly all actives have a fitted effect of over 55% in size.
On the % scale 0 is the no-effect control and ±100 the full control effect; potency means the concentration at half of the fitted maximal effect; tags describe the fitted curve by direction and shape.

Sequence of UniProt P43220 (P43220 whole entry, looked up): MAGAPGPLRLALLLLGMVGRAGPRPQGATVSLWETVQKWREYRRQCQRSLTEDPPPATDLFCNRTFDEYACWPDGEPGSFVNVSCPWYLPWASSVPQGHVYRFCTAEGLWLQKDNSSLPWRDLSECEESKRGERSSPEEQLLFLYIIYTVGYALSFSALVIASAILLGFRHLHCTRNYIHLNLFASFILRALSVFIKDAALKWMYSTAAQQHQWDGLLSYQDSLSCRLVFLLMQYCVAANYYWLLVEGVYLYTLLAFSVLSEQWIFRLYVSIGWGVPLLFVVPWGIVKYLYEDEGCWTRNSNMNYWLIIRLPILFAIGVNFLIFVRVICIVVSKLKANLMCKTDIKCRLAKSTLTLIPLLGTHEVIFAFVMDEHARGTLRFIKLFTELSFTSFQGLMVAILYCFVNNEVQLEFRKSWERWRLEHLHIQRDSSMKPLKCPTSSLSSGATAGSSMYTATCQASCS

| SMILES | Potency | activity change, negative = inhibition |
| --- | --- | --- |
| Cn1nnnc1SCCNCc1ccccc1OCc1ccccc1Cl | inconclusive [inhibitor, partial curve, poor fit] |  |
| O=C1CCCc2cc3c(cc21)CC1(C3)Cc2cc3c(cc2C1)C(=O)CCC3 | inconclusive [inhibitor, full curve, poor fit] |  |
| COc1ccc(C)cc1NC(=O)NC(C)c1c(-n2cccc2)sc(C)c1C (stereo unspecified) | inconclusive [inhibitor, partial curve, poor fit] |  |
| CC(C)=CCC[C@H](C)CC1Cc2[nH]c(=S)[nH]c(=O)c2C(c2ccc(Cl)cc2)O1 (stereo partly specified) | inconclusive [inhibitor, single point] |  |
| O=C(CCNC(=O)c1ccc(Cl)cc1)Nc1ccc(F)cc1F | inconclusive [inhibitor, partial curve, poor fit] |  |
| CC/C(=C(/c1ccccc1)c1ccc(OCC[N+](C)(C)C)cc1)c1ccccc1 | inconclusive [inhibitor, single point] |  |
| O=C(C1CCCN(S(=O)(=O)c2ccc(Br)s2)C1)N1CCN(c2ccccc2F)CC1 (stereo unspecified) | inactive |  |
| Cc1ccc(C)c(NC(=S)N2CCCCCC2)c1 | inactive |  |
| COC(=O)Cc1ccc(NC(=S)NCCSc2ccc(Cl)cc2)cc1 | inconclusive [inhibitor, partial curve, poor fit] |  |
| N#Cc1ccc(CSc2nnc(-c3cccc(S(=O)(=O)N4CCCCC4)c3)o2)cc1 | inconclusive [inhibitor, partial curve, poor fit] |  |
| CCc1nc(N2CCN(C(=O)c3ccccc3)CC2)c2c3c(sc2n1)CCCC3 | inconclusive [inhibitor, partial curve, poor fit] |  |
| Cc1cccc(NC(=O)CSCC(=O)Nc2ccccc2N2CCCC2)c1 | inconclusive [inhibitor, partial curve, poor fit] |  |
| CC(C(=O)Nc1ccc(F)c(F)c1F)N(C)CCOc1ccccc1 (stereo unspecified) | inconclusive [inhibitor, single point] |  |
| Cc1ccccc1CN1CCC(CNc2ncnc3onc(-c4ccc(F)cc4)c23)CC1 | inactive |  |
| O=C(CSc1nnc(-c2cccs2)n1-c1ccccc1)NCc1ccco1 | inconclusive [inhibitor, full curve, poor fit] |  |
| COc1cc(NC(=O)NC(C)c2c(-n3cccc3)sc3c2CCCC3)cc(OC)c1OC (stereo unspecified) | active: 11.2 µM |  |
| O=C(Nc1ccccc1)Nc1cccc(-c2cn3cccnc3n2)c1 | inconclusive [inhibitor, single point] |  |
| CCOC(=O)C1(Cc2ccccc2C)CCCN(Cc2ccc(NC(C)=O)cc2)C1 (stereo unspecified) | inconclusive [inhibitor, partial curve, poor fit] |  |
| CCC1CO/C(=C(\C(Cl)=C(Cl)Cl)[N+](=O)[O-])N1 (stereo unspecified) | inactive |  |
| CC(C)c1ccc(/C=N/NC(=O)C2CCCC2)cc1 | inconclusive [inhibitor, partial curve, poor fit] |  |
| CC(C)=CCC/C(C)=C/CNC(=O)C[C@H]1C[C@H](C(=O)N2CCCCC2)[C@@]2(CCc3ccccc3)c3[nH]c4cc(-c5ccco5)ccc4c3CCN2C1=O | inconclusive [inhibitor, single point] |  |

| SMILES | Potency | activity change, negative = inhibition |
| --- | --- | --- |
| COc1cc(CCC(C)=O)ccc1OC(=O)c1c(F)cccc1Cl | inconclusive [inhibitor, single point] |  |
| CCOc1ccc(CNC(=O)Cn2cc3c(n2)-c2c(oc(C(=O)N4CCOCC4)c2C)CC3)cc1 | inactive |  |
| COC(=O)CC1C(=O)NCCN1Cc1cn(-c2ccc(C)cc2)nc1-c1cccc(C)c1 (stereo unspecified) | inconclusive [inhibitor, partial curve, poor fit] |  |
| COc1ccccc1N1CCN(CCCNC(=O)c2cnn(-c3cccc(Cl)c3)c2C2CCN(C(=O)OC(C)(C)C)CC2)CC1 | inconclusive [inhibitor, single point] |  |
| Cc1c(C(=O)NCc2ccccc2CN2CCCC2)oc2ccccc12 | inconclusive [inhibitor, partial curve, poor fit] |  |
| Cc1ccc(CN2C(=O)C3(c4ccccc42)N(c2cccc(F)c2)C(=O)CS3(=O)=O)cc1 (stereo unspecified) | inconclusive [inhibitor, single point] |  |
| O=C(NCCS(=O)(=O)N1CCN(c2ccccc2)CC1)c1cccc(F)c1 | inconclusive [inhibitor, partial curve, poor fit] |  |
| NC1=NC[C@H](Cc2ccc(O)cc2)N1CCc1cccc(F)c1 | inactive |  |
| CCOC(=O)c1cc(-c2ccccc2)n(CCC(=O)N2CCN(c3ccccc3OC)CC2)c1C | inconclusive [inhibitor, partial curve, poor fit] |  |
| NC(=O)C(c1ccc(Sc2ccccc2)nn1)c1ccc(Cl)cc1Cl (stereo unspecified) | inconclusive [inhibitor, single point] |  |
| CC1(C)OC(=O)C2=C(C[C@@H](C3CCCC3)O[C@@H]2c2ccc(Cl)cc2)O1 | inconclusive [inhibitor, single point] |  |
| O=C(OCC#Cc1c(COC(=O)c2ccccc2)nnn1Cc1ccccc1)c1ccccc1 | inconclusive [inhibitor, single point] |  |
| COc1ccc(CNC(=O)CN2CCN(c3ccc(F)cc3)CC2)cc1 | inconclusive [inhibitor, partial curve, poor fit] |  |
| COc1ccc(N(C(=O)c2ccco2)S(=O)(=O)c2cc(OC)ccc2OC)cc1 | inactive |  |
| Cc1ccc2c(CC(=O)Nc3ccc(S(=O)(=O)N4CCCCC4)cc3)coc2c1 | inconclusive [inhibitor, partial curve, poor fit] |  |
| Cc1ccc(Cl)cc1NC(=O)Cn1c(=O)oc2cc(S(=O)(=O)N3CCCC3)ccc21 | inactive |  |
| Cc1cccc(NC(=S)N(CCN(C)C)Cc2cc3cc(C)ccc3[nH]c2=O)c1 | inconclusive [inhibitor, single point] |  |
| COc1ccc(C(=O)Nc2ccc(Nc3ccccc3)cc2)cc1[N+](=O)[O-] | inconclusive [inhibitor, partial curve, poor fit] |  |
| Cc1cc(C)c2c(=O)nc(SCc3ccccc3C)n(C3CC3)c2n1 | inactive |  |
| Cc1ccc(-n2ncc3c(Nc4cccc(C)c4C)ncnc32)cc1 | inactive |  |
| CCC(C)NS(=O)(=O)c1ccc(NC(=O)C(Sc2ccccc2)c2ccccc2)cc1 (stereo unspecified) | inconclusive [inhibitor, single point] |  |

| SMILES | Potency | activity change, negative = inhibition |
| --- | --- | --- |
| CCCCCCCCCCCCN1[C@@H](CC(=O)O)c2cc(C(F)(F)F)ccc2S1(=O)=O | inconclusive [inhibitor, single point] |  |
| Cc1ccc(S(=O)(=O)N2CCN(CCc3ccccc3)CC2)c(C)c1 |  | inconclusive: -84.7% [inhibitor] |
| CC(C)N(Cc1ccccc1)C(=O)CN1c2cccc3cccc(c23)S1(=O)=O | inconclusive [inhibitor, single point] |  |
| CCOc1cccc(/C=N/NC(=O)C2CCCC2)c1O | inconclusive [inhibitor, full curve, poor fit] |  |
| CCOc1cc(/C=N/NC(N)=S)cc(Br)c1OCc1ccccc1C | inconclusive [inhibitor, partial curve, poor fit] |  |
| CC1=NN(c2ccccc2)C(=O)/C1=C\c1cc(C)n(-c2ccccc2)c1C | inconclusive [inhibitor, single point] |  |
| CCNC(=O)c1c(NC(=O)Cc2coc3cc(C)cc(C)c23)sc2c1CCCC2 | inactive |  |
| CC(C)N1CCC(N2CCN(Cc3ccc(-c4ccc(Cl)cc4)o3)CC2CCO)CC1 (stereo unspecified) | inconclusive [inhibitor, partial curve, poor fit] |  |
| CCCCCCCCCCCC(=O)O | inconclusive [inhibitor, partial curve] |  |
| Cc1ccc(C(C)C)c(OCCCCCN2CCOCC2)c1 | inconclusive [inhibitor, partial curve] |  |
| COC(=O)c1c(C)oc2ccc(N(C(=O)Oc3ccccc3)S(=O)(=O)c3ccccc3)cc12 | inconclusive [inhibitor, partial curve, poor fit] |  |
| Cc1ccccc1OCCNC(=O)CSc1ccc(C(F)(F)F)cc1[N+](=O)[O-] | inconclusive [inhibitor, single point] |  |
| Cc1cc(NC(=O)COC(=O)C(Nc2ccc(C(F)(F)F)cc2Cl)C(C)C)no1 (stereo unspecified) | inconclusive [inhibitor, partial curve, poor fit] |  |
| Cc1ccc(CN2CCCN(C)CC2)c(C)c1 | inconclusive [inhibitor, partial curve] |  |
| O=C(NCc1ccco1)c1sc(=S)n2c1[nH]c(=O)c1ccccc12 | inactive |  |
| CN1CCN(CC#CCC(O)(c2ccccc2)C2CCCC2)CC1 (stereo unspecified) | inconclusive [inhibitor, single point] |  |
| Cc1ccc(Cl)cc1NC(=O)C(C)n1nc(-c2ccccc2)ccc1=O (stereo unspecified) | inconclusive [inhibitor, partial curve, poor fit] |  |
| CC(=O)Oc1c(C)c2c3c(c1OC(C)=O)[C@@H](C)CC[C@@H]3[C@@H](C)C[C@H]2C=C(C)C | inconclusive [inhibitor, single point] |  |
| Cc1ccccc1NS(=O)(=O)c1csc(C(N)=O)c1 | inconclusive [inhibitor, single point] |  |
